Experimental data reported in the supplement of paper PMC4723716.
± gives the uncertainty stated by the source. In all, about 9,900 compounds were measured (“viability index relative to DMSO control”: median about 1, lowest 2% from about 0.85 on). Some of the results follow.

System: Plasmodium falciparum NF54 stage V gametocytes
Experiment: viability index relative to DMSO control (fraction); higher = less gametocyte killing
Conditions: 2.5 µM, library set: Broad Institute DOS, incubation time: 72 h
Method in brief: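 Viability index is the count of red-stained particles in a well divided by the plate mean of solvent-only wells. Particles of 20–70 µm2 were counted in one imaged field per well after one to two hours with 3 µl of 2.5 µM MitoTracker Red CMXRos and 0.13% saponin. Before staining, P. falciparum NF54 stage V gametocytes in serum-free medium (0.75% gametocytemia, 1.25% hematocrit, 10 µl, 1,536-well plates) were kept with compound at 2.5 µM for 72 hr at 37°C under low oxygen.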

Row | Structure (SMILES) | viability index
1 | OC[C@@H]1[C@@H](c2ccccc2)C2(CN(Cc3cccnc3)C2)N1Cc1ccncc1 | 1.17 ± 0.018
2 | CN1c2ccc(C#Cc3cccnc3)cc2[C@@H]2[C@@H](CCN2C(=O)c2cccc(F)c2)[C@H]1CO | 1.05 ± 0.18
3 | O=C(c1cnccn1)N1CC(=O)N2[C@@H](CO)[C@@H](c3ccc(C#CC4CC4)cc3)[C@@H]2C1 | 1.02 ± 0.022
4 | Cc1ccccc1-c1ccccc1[C@H]1[C@@H](C#N)N(C(=O)c2ccc(F)cc2)[C@H]1CO | 1.11 ± 0.026
5 | CC1C=NC(S(=O)(=O)N2CC[C@@H]3[C@H](CO)N(C)c4ccc(C5=CCCCC5)cc4[C@@H]32)=N1 (stereo not given in full) | 1.06 ± 0.032
6 | COCC#Cc1ccc2c(c1)O[C@H](CN(C)C(=O)C1CCOCC1)[C@H](C)CN([C@@H](C)CO)S2(=O)=O | 1.016 ± 0.0031
7 | Cn1cnc(S(=O)(=O)N2CCCCN3[C@H](CO)[C@H](c4ccc(C5=CCCCC5)cc4)[C@@H]3C2)c1 | 1.05 ± 0.095
8 | CO[C@H]1CN(C)C(=O)c2cc(NC(=O)Nc3cccc(Cl)c3)ccc2OC[C@@H](C)N(C(=O)Nc2c(C)noc2C)C[C@H]1C | 1.118 ± 0.011
9 | COC(=O)C[C@@H]1CC[C@@H]2[C@H](COC[C@H](O)CN2S(=O)(=O)c2ccccc2OC)O1 | 1.03 ± 0.083
10 | COc1cccc(NC(=O)N2C[C@@H](O)COC[C@@H]3O[C@H](CC(=O)N(C)C)CC[C@H]32)c1 | 0.976 ± 0.084
11 | C[C@H]1CN([C@@H](C)CO)S(=O)(=O)c2ccc(C#CC(C)(C)O)cc2O[C@@H]1CN(C)Cc1ccc(F)cc1 | 0.9938 ± 0.0061
12 | COc1ccc(S(=O)(=O)N2C[C@H](O)COC[C@H]3O[C@@H](CC(=O)N[C@@H]4CCN(Cc5ccccc5)C4)CC[C@@H]32)cc1 | 1.04 ± 0.016
13 | COc1ccc([C@H]2C/C=C/C[C@@H](C)Oc3ccccc3C(=O)N(C)[C@H](Cc3ccccc3)C(=O)N2)c(OC)c1.COc1ccc([C@H]2C/C=C\C[C@@H](C)Oc3ccccc3C(=O)N(C)[C@H](Cc3ccccc3)C(=O)N2)c(OC)c1 | 0.954 ± 0.074
14 | CCCC#Cc1ccc([C@@H]2[C@@H](C#N)N(C(=O)CN3CCOCC3)[C@H]2CO)cc1 | 1.05 ± 0.011
15 | CCC(=O)N1[C@@H]2c3ccc(-c4ccccc4F)c(=O)n3C[C@H]1[C@H](CO)[C@H]2C(=O)NC1CCC1 | 1.06 ± 0.031
16 | CO[C@@H]1CN(C)C(=O)c2cc(NC(C)=O)ccc2OC[C@H](C)N(C(=O)Cc2ccccn2)C[C@H]1C | 0.972 ± 0.052
17 | CO[C@@H]1CN(C)C(=O)c2cc(NC(=O)Cc3ccccc3)ccc2OC[C@H](C)N(C(=O)c2ccccc2F)C[C@@H]1C | 1.065 ± 0.0062
18 | CC(C)c1cn(CC[C@@H]2CC[C@@H](NS(=O)(=O)c3ccc(F)cc3)[C@@H](CO)O2)nn1 | 1.12 ± 0.12

Row | Structure (SMILES) | viability index
19 | CO[C@H]1CN(C)C(=O)c2cc(NC(=O)Nc3cc(F)ccc3F)ccc2OC[C@@H](C)NC[C@@H]1C | 1.1 ± 0.025
20 | COc1ccc(NC(=O)N(C)C[C@@H]2Oc3c(NC(=O)CCCCCC(=O)Nc4ccccc4N)cccc3C(=O)N([C@H](C)CO)C[C@H]2C)cc1 | 0.893 ± 0.012
21 | Cn1cnc(S(=O)(=O)N[C@@H]2CC[C@@H](CC(=O)NCC3CCCCC3)O[C@H]2CO)c1 | 1.023 ± 0.0049
22 | CN(C)CC(=O)N1[C@H](C(=O)NC2CCC2)[C@@H](CO)[C@@H]2Cn3c(ccc(-c4cccc(F)c4)c3=O)[C@@H]21 | 1.02 ± 0.031
23 | O=C(Nc1ccccc1F)N1CC(=O)N2[C@H](CO)[C@@H](c3ccc(-c4cccnc4)cc3)[C@H]2C1 | 0.984 ± 0.021
24 | C[C@@H](NC(=O)C[C@@H]1CC[C@H]2[C@@H](COc3ccc(NC(=O)C4CCOCC4)cc3C(=O)N2C)O1)c1ccccc1 | 1.09 ± 0.045
25 | COc1cccc(-c2ccc3c(c2)O[C@H](CN(C)Cc2cccnc2)[C@H](C)CN([C@@H](C)CO)S3(=O)=O)c1 | 0.982 ± 0.053
26 | COCC(=O)N1CC2(C1)[C@H](c1ccc(-c3cccc(F)c3)cc1)[C@@H](CO)N2C(=O)C1CC1 | 1.11 ± 0.046
27 | C[C@@H](O)C#Cc1ccc([C@H]2[C@H]3CN(C(=O)c4ccc5c(c4)OCO5)CCCCN3[C@H]2CO)cc1 | 0.983 ± 0.017
28 | CN(C)CC(=O)N1CCCCN2[C@H](CO)[C@@H](c3ccc(-c4cncnc4)cc3)[C@H]2C1 | 1.01 ± 0.063
29 | CO[C@H]1CC[C@@H]2CCOc3c(C#N)cccc3C(=O)N(C)C[C@H](c3ccccc3)CC(=O)N(C)C[C@H]1O2 | 1.14 ± 0.03
30 | C/C=C/c1ccc([C@@H]2[C@H](CO)N(CC3CCCC3)C23CN(S(=O)(=O)CC)C3)cc1 | 0.986 ± 0.045
31 | CCCN1[C@H](C(=O)NCCCN2CCOCC2)[C@@H](CO)[C@@H]2Cn3c(ccc(-c4ccncc4)c3=O)[C@@H]21 | 1.08 ± 0.065
32 | COc1ccc2c3c([nH]c2c1)[C@@H](CO)N(C)C[C@]31CN(C1)S(C)(=O)=O | 1 ± 0.12
33 | C[C@H]1CN([C@@H](C)CO)C(=O)c2cc(N(C)C)ccc2O[C@@H]1CN(C)CC1CCCCC1 | 1.01 ± 0.12
34 | CN1C(=O)c2cc(NS(=O)(=O)c3ccc(Cl)cc3)ccc2OC[C@H]2O[C@@H](CC(=O)Nc3ccc4c(c3)COC4)CC[C@@H]21 | 1.026 ± 0.0093
35 | NCC[C@H]1CC[C@H](NC(=O)NC2CCCCC2)[C@H](CO)O1 | 1.05 ± 0.023
